Test results as given in US11000038B2, “Pyridone compounds and agricultural and horticultural fungicides containing the same as active ingredients” (priority 2017, dated 2021).

Columns and labels:
[1] = tested on: cucumber anthracnose fungi (Colletotrichum orbiculare); assay: Test Example H: cucumber anthracnose, spray treatment of cucumber plants; conditions: cucumber anthracnose, 250 ppm spray, 6 to 10 days after inoculation
[2] = tested on: rice blast fungi (Magnaporthe grisea); assay type: in vivo; conditions: rice blast, spray treatment
[3] = tested on: tomato late blight fungi (Phytophthora infestans); assay type: in vivo; conditions: tomato late blight, spray treatment

Row | Structure (SMILES) | Test H control value [1] | Test A control value [2] | Test F control value [3]
1 | COc1cc(F)c(-c2c(C)c(=O)c(C)cn2-c2ccccc2)c(F)c1 [Compound 454] | H (H shows the control value of more than 50%) | H (H shows the control value of more than 50%) | L (L shows the control value of 50% or less)
2 | Cc1ccc(F)cc1-n1cc(C)c(=O)c(C)c1-c1c(F)cc(F)cc1F [Compound 455] | H (H shows the control value of more than 50%) | H (H shows the control value of more than 50%) | L (L shows the control value of 50% or less)
3 | COc1cc(F)c(-c2c(C)c(=O)c(C)cn2-c2ccccc2Br)c(F)c1 [Compound 456] | H (H shows the control value of more than 50%) | H (H shows the control value of more than 50%) | L (L shows the control value of 50% or less)
4 | Cc1ccc(F)cc1-n1cc(Br)c(=O)c(Cl)c1-c1c(F)cccc1F [Compound 457] | H (H shows the control value of more than 50%) | L (L shows the control value of 50% or less) | L (L shows the control value of 50% or less)
5 | Cc1ncccc1-n1cc(Br)c(=O)c(Cl)c1-c1c(F)cc(F)cc1F [Compound 458] | H (H shows the control value of more than 50%) | H (H shows the control value of more than 50%) | L (L shows the control value of 50% or less)
6 | Cc1ccc(C)c(-n2cc(Br)c(=O)c(Cl)c2-c2ccccc2)c1 [Compound 459] | L (L shows the control value of 50% or less) | L (L shows the control value of 50% or less) | L (L shows the control value of 50% or less)
7 | Cc1ccc(C)c(-n2cc(Br)c(=O)c(Br)c2-c2ccccc2)c1 [Compound 460] | L (L shows the control value of 50% or less) | H (H shows the control value of more than 50%) | L (L shows the control value of 50% or less)
8 | Cc1c(Cl)cccc1-n1cc(C)c(=O)c(C)c1-c1c(F)cc(F)cc1F [Compound 461] | H (H shows the control value of more than 50%) | H (H shows the control value of more than 50%) | L (L shows the control value of 50% or less)
9 | COc1cc(F)c(-c2c(C)c(=O)c(C)cn2-c2cc(F)ccc2C)c(F)c1 [Compound 462] | H (H shows the control value of more than 50%) | H (H shows the control value of more than 50%) | L (L shows the control value of 50% or less)
10 | Cc1ccc(Cl)cc1-n1cc(C)c(=O)c(C)c1-c1c(F)cc(F)cc1F [Compound 463] | H (H shows the control value of more than 50%) | H (H shows the control value of more than 50%) | L (L shows the control value of 50% or less)
11 | COc1cc(F)c(-c2c(C)c(=O)c(C)cn2-c2cc(Cl)ccc2C)c(F)c1 [Compound 464] | H (H shows the control value of more than 50%) | H (H shows the control value of more than 50%) | L (L shows the control value of 50% or less)
12 | Cc1cccc(-n2cc(C)c(=O)c(C)c2-c2c(F)cc(F)cc2F)c1C [Compound 465] | H (H shows the control value of more than 50%) | H (H shows the control value of more than 50%) | L (L shows the control value of 50% or less)
13 | Cc1cn(-c2ccccc2)c(-c2ccc(F)cc2F)c(C)c1=O [Compound 466] | H (H shows the control value of more than 50%) | H (H shows the control value of more than 50%) | L (L shows the control value of 50% or less)
14 | O=c1c(Br)cn(-c2ccccc2)c(-c2ccccc2F)c1Cl [Compound 467] | L (L shows the control value of 50% or less) | L (L shows the control value of 50% or less) | L (L shows the control value of 50% or less)
15 | O=c1c(Br)cn(-c2ccccc2)c(-c2ccccc2F)c1Br [Compound 468] | L (L shows the control value of 50% or less) | H (H shows the control value of more than 50%) | L (L shows the control value of 50% or less)
16 | O=c1c(Br)cn(-c2ccccc2)c(-c2ccc(F)cc2F)c1Cl [Compound 469] | H (H shows the control value of more than 50%) | H (H shows the control value of more than 50%) | L (L shows the control value of 50% or less)
17 | O=c1c(Br)cn(-c2ccccc2)c(-c2ccc(F)cc2F)c1Br [Compound 470] | H (H shows the control value of more than 50%) | H (H shows the control value of more than 50%) | L (L shows the control value of 50% or less)
18 | Cc1cn(-c2ccccc2)c(-c2ccccc2F)c(C)c1=O [Compound 471] | H (H shows the control value of more than 50%) | H (H shows the control value of more than 50%) | L (L shows the control value of 50% or less)
19 | Cc1ccc(Br)cc1-n1cc(C)c(=O)c(C)c1-c1c(F)cc(F)cc1F [Compound 472] | H (H shows the control value of more than 50%) | H (H shows the control value of more than 50%) | L (L shows the control value of 50% or less)
20 | Cc1cn(-c2ccccc2Cl)c(-c2c(F)cccc2F)c(C)c1=O [Compound 473] | H (H shows the control value of more than 50%) | H (H shows the control value of more than 50%) | L (L shows the control value of 50% or less)
21 | Cc1cn(-c2ccccc2Cl)c(-c2ccccc2)c(C)c1=O [Compound 474] | H (H shows the control value of more than 50%) | H (H shows the control value of more than 50%) | L (L shows the control value of 50% or less)
22 | CCc1c(-c2ccccc2)n(-c2ccccc2C)cc(Br)c1=O [Compound 475] | H (H shows the control value of more than 50%) | H (H shows the control value of more than 50%) | L (L shows the control value of 50% or less)
23 | Cc1cn(-c2ccccc2C(F)(F)F)c(-c2c(F)cc(F)cc2F)c(C)c1=O [Compound 476] | H (H shows the control value of more than 50%) | H (H shows the control value of more than 50%) | L (L shows the control value of 50% or less)
24 | COc1cc(F)c(-c2c(C)c(=O)c(C)cn2-c2cccc(C)c2C)c(F)c1 [Compound 477] | H (H shows the control value of more than 50%) | H (H shows the control value of more than 50%) | L (L shows the control value of 50% or less)
25 | Cc1cccc(-n2cc(C)c(=O)c(C)c2-c2c(F)cccc2F)c1C [Compound 478] | H (H shows the control value of more than 50%) | H (H shows the control value of more than 50%) | L (L shows the control value of 50% or less)
26 | Cc1c(F)cccc1-n1cc(C)c(=O)c(C)c1-c1c(F)cccc1F [Compound 479] | H (H shows the control value of more than 50%) | H (H shows the control value of more than 50%) | L (L shows the control value of 50% or less)
27 | Cc1c(Br)cccc1-n1cc(C)c(=O)c(C)c1-c1c(F)cc(F)cc1F [Compound 480] | H (H shows the control value of more than 50%) | H (H shows the control value of more than 50%) | L (L shows the control value of 50% or less)
28 | COc1cccc(-n2cc(C)c(=O)c(C)c2-c2c(F)cc(F)cc2F)c1C [Compound 481] | H (H shows the control value of more than 50%) | H (H shows the control value of more than 50%) | H (H shows the control value of more than 50%)
29 | Cc1cccc(-n2cc(C)c(=O)c(C)c2-c2ccccc2)c1C [Compound 482] | H (H shows the control value of more than 50%) | L (L shows the control value of 50% or less) | L (L shows the control value of 50% or less)
30 | Cc1c(F)cccc1-n1cc(C)c(=O)c(C)c1-c1ccccc1 [Compound 483] | H (H shows the control value of more than 50%) | L (L shows the control value of 50% or less) | L (L shows the control value of 50% or less)
